Screen size: about 340,000 compounds; about 12,000 (3.5%) were called active. The inconclusive results got no clear call from the source; some entries with a clear call stand among them for comparison. The call rests on the fitted dose curve; in most records, active means well fitted inhibition curve with a large enough effect; inconclusive means small, poorly fitted or top-dose-only effect, or another doubt; inactive means no such curve, though single readings can be large or run the other way. No potency is given beside an inconclusive call; the fits are too rough. A structure can be active in one record and inactive in another.
Experiment: qHTS Assay for Inhibitors of Hepatitis C Virus (HCV)
Conditions: Huh7.5.1 HCVcc-Cre (HCVcc is cell-culture hepatitis C virus) infection, luciferase reporter, 44 h; activity change, negative = inhibition: at 41.8 µM (top of the series) unless noted
Outline: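 Cells (1,000/well) were plated 4 h before compound, then infected with HCVcc-Cre virus (~0.5 moi). After 44 h further culture, infection was read as luciferase luminescence following a 15 min substrate incubation at room temperature.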
For `CCOc1cc(C(=O)Nc2ccc([N+](=O)[O-])cn2)cc(OCC)c1OCC`, the Potency was inconclusive [inhibitor, full curve]. With `O=C(CN1C(=O)NC2(CCCc3ccccc32)C1=O)N1CCN(C(=O)c2ccco2)CC1` (stereo not given) the Potency was inconclusive [inhibitor, single point]. For `Cc1cc(C)nc(NC(=O)c2c(Cl)cccc2Cl)n1`, the Potency was “inactive”. In the case of `Cc1cc(C)cc(N=C2NC(=O)/C(=C/c3cccs3)S2)c1`, the Potency was “inactive”. In the case of `CCCCN(CCCC)NC(=O)c1ccccc1`, the Potency was “inactive”. With `CCOc1ccc(-c2nc(N)nc(C)c2-c2ccc(Cl)cc2)c(O)c1` the Potency was inconclusive [inhibitor, partial curve]. With `O=C1CCCc2cc(S(=O)(=O)N3CCC(C(=O)NCc4ccccc4)CC3)ccc2N1` the Potency was “inactive”. In the case of `Cc1cc(Nc2ccccc2)c2c([N+](=O)[O-])c(C)cc(C)c2n1`, the Potency was inconclusive [inhibitor, single point]. For `CCOC(=O)Cc1csc(NC(=O)Cc2ccc(Cl)cc2)n1`, the Potency was inconclusive [inhibitor, single point]. In the case of `Cc1ccc(CS(=O)Cc2ccc(C(=O)NC3CCC(C)CC3)o2)cc1` (stereo not given), the Potency was “inactive”. In the case of `COc1ccccc1N1CCN(CC(O)COc2c(OC)cccc2OC)CC1` (stereo not given), the Potency was inconclusive [inhibitor, partial curve]. For `O=C(O)CCn1nnc(-c2ccccc2)n1`, the Potency was “inactive”. For `Cn1c(=O)c2[nH]c(Cc3cccc(O)c3)nc2n(C)c1=O`, the Potency was “inactive”. With `CC(Oc1cccc(NC(=O)c2cccs2)c1)C(=O)c1ccccc1` (stereo not given) the Potency was inconclusive [inhibitor, single point]. With `Cc1cc(Nc2ccccc2)n(-c2ccc(C(=O)O)cc2)n1` the Potency was “inactive”. With `CCOc1ccc(CCNC(=O)c2ccc(CS(=O)Cc3cccc(Cl)c3)o2)cc1` (stereo not given) the Potency was inconclusive [inhibitor, partial curve]. For `O=[N+]([O-])c1ccc(N2CCN(C(=S)Nc3cccc(F)c3)CC2)cc1`, the Potency was inconclusive [inhibitor, single point]. For `O=C(NCCc1ccc2c(c1)OCCO2)c1ccc(F)cc1`, the Potency was inconclusive [inhibitor, single point]. With `CC(C)c1ccc(NC2CCCN(C(=O)c3ccc(N4CCOCC4)cc3)C2)cc1` (stereo not given) the Potency was inconclusive [inhibitor, single point]. In the case of `C[N+]1(C)CCOC(O)(c2ccc(-c3ccc(C4(O)C[N+](C)(C)CCO4)cc3)cc2)C1` (stereo not given), the Potency was inconclusive [inhibitor, single point]. With `CCC(=O)Nc1nc(-c2ccccc2)nc(SC)c1C(C)=O` the Potency was inconclusive [inhibitor, single point]. For `COCCOc1ccc(C(F)(F)F)cc1NC(=O)Cc1ccc(S(=O)(=O)N2CCOCC2)s1`, the Potency was inconclusive [inhibitor, full curve]. With `CCCc1c(-c2ccc(O)cc2)nn(-c2ccc(O)cc2)c1-c1ccc(O)cc1` the Potency was inconclusive [inhibitor, single point]. With `COc1ccc(OC)c(S(=O)(=O)N2c3ccccc3CC2C)c1` (stereo not given) the Potency was inconclusive [inhibitor, partial curve]. For `CC(NCc1ccc(S(N)(=O)=O)cc1)C(=O)Nc1cc([N+](=O)[O-])ccc1Cl` (stereo not given), the Potency was inconclusive [inhibitor, single point]. With `Clc1ccccc1OCCCCN1CCCCC1` the Potency was inconclusive [inhibitor, single point]. With `CC1CCCN(C(=O)c2sc3cc([N+](=O)[O-])ccc3c2Cl)C1` (stereo not given) the Potency was inconclusive [inhibitor, partial curve, poor fit]. For `COC(=O)c1c(C)[nH]c(C(=O)C(C)OC(=O)c2c(C)noc2C)c1C` (stereo not given), the Potency was inconclusive [inhibitor, partial curve]. For `Cn1ncc(Cl)c1C(=O)Nc1ccncc1`, the Potency was “inactive”. For `Nc1c(C(=O)NC2CC2)c2nc3ccccc3nc2n1-c1ccc2c(c1)OCO2`, the Potency was inconclusive [inhibitor, single point]. With `CC1Oc2ccccc2C=C1/C=N/NC(=O)c1ccncc1` (stereo not given) the Potency was inconclusive [inhibitor, single point]. In the case of `COc1cccc(-n2c(C)c3c(OC)cccc(=O)c3c2C)c1`, the Potency was “inactive”. With `Cc1cccc(N2CC(C(=O)Nc3cccc(S(=O)(=O)N4CCCCC4)c3)CC2=O)c1C` (stereo not given) the Potency was inconclusive [inhibitor, partial curve]. In the case of `O=C(NCc1cccnc1)/C(=C\c1ccc(-c2cccc(Cl)c2)o1)S(=O)(=O)c1ccccc1`, the Potency was inconclusive [inhibitor, partial curve]. With `CCO/N=C(\N)c1[nH]ncc1Br` the Potency was “inactive”. In the case of `Oc1c(Cl)cc(Cl)c(Cl)c1Cc1c(O)c(Cl)cc(Cl)c1Cl`, the Potency was active: 8.91 µM. For `CC1=C(C(=O)OCc2ccccc2)C(c2ccccc2-c2ccccc2)NC(=O)N1CCCCCC(=O)O` (stereo not given), the activity change, negative = inhibition was inactive: 5.69% [at 8.37 µM]. In the case of `Cc1ccc(NC(=O)CN(C)C(=O)C2COc3ccccc3O2)cc1` (stereo not given), the Potency was “inactive”. With `O=C(Nc1ccccc1)C1CC(=O)N(c2ccc3c4c(cccc24)CC3)C1` (stereo not given) the Potency was inconclusive [inhibitor, full curve]. For `COCC(=O)OC/C(O)=C(\C#N)c1nc2ccccc2[nH]1`, the Potency was “inactive”. With `O=C(C1=C[C@@H](c2coc3ccccc3c2=O)C[C@@H](OCc2ccc(CO)cc2)O1)N1CCN(Cc2ccccc2)CC1` the Potency was inconclusive [inhibitor, single point]. In the case of `COc1ccccc1OCC(=O)Nc1ccccc1C(=O)NCc1ccco1`, the Potency was inconclusive [inhibitor, partial curve]. For `COc1ccc(C2=NN(CN3C(=O)C(=O)c4ccccc43)C(c3cccc([N+](=O)[O-])c3)C2)cc1` (stereo not given), the Potency was inconclusive [inhibitor, partial curve]. With `COCCN(Cc1cccs1)S(=O)(=O)c1ccc(-c2ccc(=O)[nH]n2)s1` the Potency was “inactive”. With `O=c1ccn(Cc2ccccc2)c2ccccc12` the Potency was inconclusive [inhibitor, full curve, poor fit].

From PubChem BioAssay AID651820 (National Center for Advancing Translational Sciences (NCATS), 2012)
On the % scale 0 is the no-effect control and ±100 the full control effect; potency means the concentration at half of the fitted maximal effect; tags describe the fitted curve by direction and shape.
